# According to the supplement of paper PMC8728848:
# Some of the results follow.
# B1: Si Bti9 1b-V5-his (Solanum lycopersicum) (protein)
# chain: MQCNRGCDLALASFYVWRGSNLTLISEMFSTSIADIVSYNNRDNIPNQDSVIAGTRINIPFRCDCLNDGEVLGHAFPYRVKSGDTYDLVARNYSDLTTAQWMMKFNSYPENNIPNTVNLSVVVNCSCGNSDVSKDFGLFVTYPVRAEDNLTSVASAANVSEDIIRRYNPAAVSILDIGQGIIYIPGRDRNGNFPPLPTSTDGLSGGAKKGGRADPAFLYKVVINSKLEGKPIPNPLLGLDSTRTGHHHHHH
# Tests used:
# Test in all cases: glycan array binding signal (z-score within array); higher = stronger binding
# Conditions in all cases: glycan notation: IUPAC condensed, linker removed
# [1] = molecular target: Gal(b1-3)GlcNAc(b1-2)Man(a1-3)[Gal(b1-3)GlcNAc(b1-2)Man(a1-6)]Man(b1-4)GlcNAc(b1-4)[Fuc(a1-6)]GlcNAc
# How it was run: (§1)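 From the Consortium for Functional Glycomics database, 3228 arrays were curated, keeping only those whose protein sequence was available. Binding is given as a within-array Z-score averaged across arrays sharing a protein sequence and across linkers. Negative Z-scores can be read as non-binding.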
# [2] = molecular target: Gal(b1-3)GlcNAc(b1-2)Man(a1-3)[GlcNAc(b1-4)][Gal(b1-3)GlcNAc(b1-2)Man(a1-6)]Man(b1-4)GlcNAc(b1-4)GlcNAc
# How it was run: as §1
# [3] = molecular target: Gal(b1-3)GlcNAc(b1-2)[Gal(b1-3)GlcNAc(b1-6)]Man(a1-6)[Gal(b1-3)GlcNAc(b1-2)Man(a1-3)]Man(b1-4)GlcNAc(b1-4)GlcNAc
# How it was run: as §1
# [4] = molecular target: Gal(b1-3)GlcNAc(b1-3)Gal(b1-3)GlcNAc
# How it was run: as §1
# [5] = molecular target: Gal(b1-3)GlcNAc(b1-3)Gal(b1-4)Glc
# How it was run: as §1
# [6] = molecular target: Gal(b1-3)GlcNAc(b1-3)Gal(b1-4)GlcNAc
# How it was run: as §1
# [7] = molecular target: Gal(b1-3)GlcNAc(b1-3)Gal(b1-4)GlcNAc(b1-2)Man(a1-3)[Gal(b1-3)GlcNAc(b1-3)Gal(b1-4)GlcNAc(b1-2)Man(a1-6)]Man(b1-4)GlcNAc(b1-4)GlcNAc
# How it was run: as §1
# [8] = molecular target: Gal(b1-3)GlcNAc(b1-3)Gal(b1-4)GlcNAc(b1-2)[Gal(b1-3)GlcNAc(b1-3)Gal(b1-4)GlcNAc(b1-6)]Man(a1-6)[Gal(b1-3)GlcNAc(b1-3)Gal(b1-4)GlcNAc(b1-2)Man(a1-3)]Man(b1-4)GlcNAc(b1-4)[Fuc(a1-6)]GlcNAc
# How it was run: as §1
# [9] = molecular target: Gal(b1-3)GlcNAc(b1-3)Gal(b1-4)GlcNAc(b1-3)Gal(b1-4)GlcNAc(b1-2)[Gal(b1-3)GlcNAc(b1-3)Gal(b1-4)GlcNAc(b1-3)Gal(b1-4)GlcNAc(b1-6)]Man(a1-6)[Gal(b1-3)GlcNAc(b1-3)Gal(b1-4)GlcNAc(b1-3)Gal(b1-4)GlcNAc(b1-2)Man(a1-3)]Man(b1-4)GlcNAc(b1-4)[Fuc(a1-6)]GlcNAc
# How it was run: as §1
# [10] = molecular target: Gal(b1-3)GlcNAc(b1-3)Gal(b1-4)GlcNAc(b1-6)[Gal(b1-3)GlcNAc(b1-3)]Gal(b1-4)Glc
# How it was run: as §1
# [11] = molecular target: Gal(b1-3)GlcNAc(b1-3)Gal(b1-4)[Fuc(a1-3)]GlcNAc
# How it was run: as §1
# [12] = molecular target: Gal(b1-3)GlcNAc(b1-3)Gal(b1-4)[Fuc(a1-3)]GlcNAc(b1-6)[Gal(b1-3)GlcNAc(b1-3)]Gal(b1-4)Glc
# How it was run: as §1
# [13] = molecular target: Gal(b1-3)GlcNAc(b1-3)GalNAc
# How it was run: as §1
# [14] = molecular target: Gal(b1-3)GlcNAc(b1-6)Gal(b1-4)GlcNAc
# How it was run: as §1
# [15] = molecular target: Gal(b1-3)GlcNAc(b1-6)GalNAc
# How it was run: as §1
# [16] = molecular target: Gal(b1-3)GlcNAc(b1-6)[Gal(b1-3)]GalNAc
# How it was run: as §1
# Gal(b1-3)GlcNAc6S = molecular target: Gal(b1-3)GlcNAc6S
# How it was run: as §1
# [17] = molecular target: Gal(b1-3)[Fuc(a1-4)]GlcNAc
# How it was run: as §1
# [18] = molecular target: Gal(b1-3)[Fuc(a1-4)]GlcNAc(b1-2)Man
# How it was run: as §1
# [19] = molecular target: Gal(b1-3)[Fuc(a1-4)]GlcNAc(b1-2)Man(a1-3)[Gal(b1-3)[Fuc(a1-4)]GlcNAc(b1-2)Man(a1-6)]Man(b1-4)GlcNAc(b1-4)[Fuc(a1-6)]GlcNAc
# How it was run: as §1
# [20] = molecular target: Gal(b1-3)[Fuc(a1-4)]GlcNAc(b1-3)Gal(b1-3)[Fuc(a1-4)]GlcNAc
# How it was run: as §1
# [21] = molecular target: Gal(b1-3)[Fuc(a1-4)]GlcNAc(b1-3)Gal(b1-4)[Fuc(a1-3)]GlcNAc
# How it was run: as §1
# [22] = molecular target: Gal(b1-3)[Fuc(a1-4)]GlcNAc(b1-6)GalNAc
# How it was run: as §1
# [23] = molecular target: Gal(b1-3)[GlcNAc(b1-6)]GalNAc
# How it was run: as §1
# [24] = molecular target: Gal(b1-3)[Neu5Ac(a2-6)]GalNAc
# How it was run: as §1
# [25] = molecular target: Gal(b1-3)[Neu5Ac(a2-6)]GlcNAc(b1-4)Gal(b1-4)Glc
# How it was run: as §1
# [26] = molecular target: Gal(b1-3)[Neu5Ac(b2-6)]GalNAc
# How it was run: as §1
# Gal(b1-4)Gal = molecular target: Gal(b1-4)Gal
# How it was run: as §1
# [27] = molecular target: Gal(b1-4)GalNAc(a1-3)[Fuc(a1-2)]Gal(b1-4)GlcNAc
# How it was run: as §1
# [28] = molecular target: Gal(b1-4)GalNAc(b1-3)[Fuc(a1-2)]Gal(b1-4)GlcNAc
# How it was run: as §1
# Gal(b1-4)Glc = molecular target: Gal(b1-4)Glc
# How it was run: as §1
# Gal(b1-4)Glc6S = molecular target: Gal(b1-4)Glc6S
# How it was run: as §1
# Gal(b1-4)GlcNAc = molecular target: Gal(b1-4)GlcNAc
# How it was run: as §1
# [29] = molecular target: Gal(b1-4)GlcNAc(a1-6)Gal(b1-4)GlcNAc
# How it was run: as §1
# Gal(b1-4)GlcNAc(b1-2)Man = molecular target: Gal(b1-4)GlcNAc(b1-2)Man
# How it was run: as §1
# [30] = molecular target: Gal(b1-4)GlcNAc(b1-2)Man(a1-3)Man(b1-4)GlcNAc(b1-4)GlcNAc
# How it was run: as §1
# [31] = molecular target: Gal(b1-4)GlcNAc(b1-2)Man(a1-3)[Gal(b1-4)GlcNAc(b1-2)Man(a1-6)]Man(b1-4)GlcNAc(b1-4)GlcNAc
# How it was run: as §1
binder,measurement,setting,value
B1,glycan array binding signal (z-score),[1],-0.076
same,glycan array binding signal (z-score),[2],-0.22
same,glycan array binding signal (z-score),[3],-0.044
same,glycan array binding signal (z-score),[4],0.11
same,glycan array binding signal (z-score),[5],-0.453
same,glycan array binding signal (z-score),[6],-0.319
same,glycan array binding signal (z-score),[7],-0.029
same,glycan array binding signal (z-score),[8],0.036
same,glycan array binding signal (z-score),[9],0.192
same,glycan array binding signal (z-score),[10],-0.125
same,glycan array binding signal (z-score),[11],-0.216
same,glycan array binding signal (z-score),[12],-0.392
same,glycan array binding signal (z-score),[13],0.141
same,glycan array binding signal (z-score),[14],-0.302
same,glycan array binding signal (z-score),[15],-0.237
same,glycan array binding signal (z-score),[16],0.09
same,glycan array binding signal (z-score),Gal(b1-3)GlcNAc6S,-0.36
same,glycan array binding signal (z-score),[17],-0.257
same,glycan array binding signal (z-score),[18],1.83
same,glycan array binding signal (z-score),[19],0.457
same,glycan array binding signal (z-score),[20],-0.064
same,glycan array binding signal (z-score),[21],-0.206
same,glycan array binding signal (z-score),[22],-0.342
same,glycan array binding signal (z-score),[23],-0.247
same,glycan array binding signal (z-score),[24],-0.06
same,glycan array binding signal (z-score),[25],-0.034
same,glycan array binding signal (z-score),[26],-0.33
same,glycan array binding signal (z-score),Gal(b1-4)Gal,-0.067
same,glycan array binding signal (z-score),[27],-0.322
same,glycan array binding signal (z-score),[28],-0.43
same,glycan array binding signal (z-score),Gal(b1-4)Glc,-0.288
same,glycan array binding signal (z-score),Gal(b1-4)Glc6S,0.072
same,glycan array binding signal (z-score),Gal(b1-4)GlcNAc,-0.283
same,glycan array binding signal (z-score),[29],-0.297
same,glycan array binding signal (z-score),Gal(b1-4)GlcNAc(b1-2)Man,0.064
same,glycan array binding signal (z-score),[30],-0.272
same,glycan array binding signal (z-score),[31],-0.298
